The structures appear in SMILES notation. “And” between values parts separate entries of the source, which are not always exact repeats. Equal values may be shown once.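 Five compound concentrations were applied to cells in 96-well plates for 48 hours; endpoints were derived by simple linear interpolation of the resulting dose-response curve. GI50: concentration for 50% inhibition of growth. TGI is the concentration that stops growth completely.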

For this assay, the system named is NCI-H322M lung. Description: NCI anticancer screen, dose series, 48 h.

Consider `C/C(=C/CC[C@](C)(OC1OC(CO)C(O)C(O)C1O)[C@H]1CC[C@]2(C)[C@@H]1CC[C@@H]1[C@@]3(C)CC[C@H](O)C(C)(C)[C@@H]3C[C@H](O)[C@]12C)CO` (stereo partly drawn), for which the TGI is greater than 100 µM.
On the same count and under the same terms, the same measure for `COC(=O)c1cc2c3c(c(C(C)=O)c(OC)c2[nH]1)NCC3`: greater than 50 µM.
On to `O=C(CN=Cc1cccs1)CSC(c1ccccc1)c1ccccc1`, for which the GI50 is 33.6 µM and the TGI was greater than 100 µM.
In turn, `COC(=O)C1CCC(=NC2c3ccccc3-c3ccccc32)N1` (stereo not drawn) showed a TGI greater than 100 µM.
Regarding `C=C(C)[C@@H]1CCC[C@]2(C(=O)O)CC[C@]3(C)[C@@H](CC[C@@H]4[C@@]5(C)C/C(=C/c6ccncc6)C(=O)C(C)(C)[C@@H]5CC[C@]43C)[C@@H]12`, the GI50 was 3.47 µM and the TGI was 13.4 µM.
The matching figures for `CCOC(=O)C1=C(c2ccccc2)N(Cc2ccccc2)C2(O)C=CC(=O)C3C(=O)N(c4ccccc4)C(=O)C132` (stereo not drawn): 1.89 µM and 3.58 µM.
In turn, `CC(C)(C)NCCC(O)c1cc(C(F)(F)F)nc2c(C(F)(F)F)cccc12` (stereo not drawn) came in with a TGI of 25 µM.
As to `COC(=O)C1=C(O)C(C(=O)OC)[C@@]2(O)[C@@H](C(=O)OC)C(c3ccc(OC(=O)C(CC(C)C)NC(C)=O)cc3)C[C@@H]1[C@@H]2C(=O)OC` (stereo partly drawn), the GI50 is 27.8 µM and the TGI amounted to 96.2 µM.
For the compound `Nc1ccc2c(c1)CN1C(=O)c3ccccc3C1=N2`, the TGI is greater than 125 µM.
With `COc1cc2c(cc1OC)[C@H]1C(=O)c3cc4c(cc3[C@H]1N(C)C2=O)OCO4`, the TGI was greater than 100 µM.
Take `CN1CCN(C(=S)SCN2C(=O)c3ccccc3S2(=O)=O)CC1`: the GI50 is 96.4 µM and the TGI is greater than 100 µM.
`c1csc(-c2ccc(-c3ccc(-c4cccs4)s3)s2)c1` registered a TGI greater than 100 µM.
Compound `Clc1ncc(C(Cl)(Cl)Cl)nc1-c1ccccc1` yielded a TGI of 3.37 µM.
Same read-out and setting: the result for `CN1C/C(=C\c2ccccc2[N+](=O)[O-])C(=O)/C(=C/c2ccccc2[N+](=O)[O-])C1` reads 5 µM and 11.8 µM.
Turning to `CN(C)c1ccc(Sc2ccc3nc(N)nc(N)c3c2)cc1`, the GI50 is 1.15 µM and the TGI came out at 17.4 µM.
As for `c1ccc(C/C(=N\Nc2nc3ccccc3o2)c2ccccn2)cc1`, the TGI turned out to be 0.945 µM.
Still for that read-out and setting: the result for `COc1ccccc1NC(=O)C(=O)C1C(=O)Nc2ccccc2S1=O` (stereo not drawn) reads greater than 100 µM.
With `COc1cc(C(=O)/C=C/c2c(C(F)(F)F)nc3sccn23)cc(OC)c1OC`, the GI50 was 1.96 µM and the TGI was found to be 5.54 µM.
In turn, `O=C(Cc1nc2ccc([N+](=O)[O-])cc2[nH]c1=O)C(=O)Nc1cc(Cl)c(Cl)cc1Cl` showed a TGI greater than 100 µM.
On the same count and under the same terms, the result for `COC1=CC2(C=CC1=O)CCN=c1c(O)c3c(c(O)c12)=NC=N3` (stereo not drawn) reads greater than 100 µM.
Consider `COc1ccc(N=C2NN=C(c3c[nH]c4ccccc34)CS2)cc1OC`, for which the GI50 is 21.6 µM and the TGI is greater than 100 µM.
Compound `COc1cc(C2S/C(=C/c3ccccc3)C(=O)N2c2ccc(Cl)cc2)cc(OC)c1OC` (stereo not drawn) yielded a TGI greater than 100 µM.
On to `Nc1ncnc2c1ncn2Cc1ccc(C23CC4CC(CC(C4)C2)C3)c(O)c1`, for which the GI50 was 12.1 µM and the TGI was greater than 100 µM.
As to `CCCCCCCCC(=O)NCCCNCCCNC(=O)CCCCCCCC`, the TGI came to 21.3 µM.
In the case of `CCOC(=O)Cc1csc(NC(=O)C(OC(=O)c2ccc(N)cc2)c2ccccc2)n1` (stereo not drawn), the GI50 is 59.6 µM and the TGI was greater than 100 µM.
The corresponding values for `Cc1csc(Nc2nc(-c3cccc(Cl)c3)nc(C(Cl)(Cl)Cl)n2)n1` are 0.701 µM and 1.91 µM.
For the compound `CSc1nc(Br)nc2c1ncn2C1CC(Oc2ccc(C)cc2)C(COc2ccc(C)cc2)O1` (stereo not drawn), the TGI is greater than 100 µM.
As for `CC[C@@]1(O)C(=O)OCc2c1cc1n(c2=O)Cc2cc3c(NC(C)=O)c(O)ccc3nc2-1`, the GI50 is 8.59 µM and the TGI came out at 61 µM.
On to `CC(=O)OCC1OC(n2c3c(c(-c4ccco4)c(C#N)c2=S)CCCC3)C(OC(C)=O)C(OC(C)=O)C1OC(C)=O` (stereo not drawn), for which the TGI is greater than 100 µM.
The same measure, in the same setting: the result for `CC[C@@]1(OC(=O)CN(C)C)C(=O)OCc2c1cc1n(c2=O)Cc2cc3ccccc3nc2-1` reads 4.86 µM; that for `COc1cc([C@@H]2c3cc4c(cc3[C@@H](Nc3ccc(Cl)cc3C(=O)c3ccccc3Cl)[C@H]3COC(=O)[C@H]23)OCO4)cc(OC)c1OC`, greater than 100 µM.

These data come from PubChem BioAssay (NCI).
